In PMC4336329 (PLoS ONE, 2015):
About 2,200 (0.71%) of roughly 310,000 compounds showed an effect of 50% or more. The effect is printed as a negative number. The list shows a part of the results.

Target: human ether-à-go-go-related gene (hERG) potassium channel (human, UniProt Q12809)
Assay: primary screen, population patch clamp on CHO cells stably expressing hERG

human ether-à-go-go-related gene (hERG) potassium channel, sequence (Q12809 whole entry, looked up): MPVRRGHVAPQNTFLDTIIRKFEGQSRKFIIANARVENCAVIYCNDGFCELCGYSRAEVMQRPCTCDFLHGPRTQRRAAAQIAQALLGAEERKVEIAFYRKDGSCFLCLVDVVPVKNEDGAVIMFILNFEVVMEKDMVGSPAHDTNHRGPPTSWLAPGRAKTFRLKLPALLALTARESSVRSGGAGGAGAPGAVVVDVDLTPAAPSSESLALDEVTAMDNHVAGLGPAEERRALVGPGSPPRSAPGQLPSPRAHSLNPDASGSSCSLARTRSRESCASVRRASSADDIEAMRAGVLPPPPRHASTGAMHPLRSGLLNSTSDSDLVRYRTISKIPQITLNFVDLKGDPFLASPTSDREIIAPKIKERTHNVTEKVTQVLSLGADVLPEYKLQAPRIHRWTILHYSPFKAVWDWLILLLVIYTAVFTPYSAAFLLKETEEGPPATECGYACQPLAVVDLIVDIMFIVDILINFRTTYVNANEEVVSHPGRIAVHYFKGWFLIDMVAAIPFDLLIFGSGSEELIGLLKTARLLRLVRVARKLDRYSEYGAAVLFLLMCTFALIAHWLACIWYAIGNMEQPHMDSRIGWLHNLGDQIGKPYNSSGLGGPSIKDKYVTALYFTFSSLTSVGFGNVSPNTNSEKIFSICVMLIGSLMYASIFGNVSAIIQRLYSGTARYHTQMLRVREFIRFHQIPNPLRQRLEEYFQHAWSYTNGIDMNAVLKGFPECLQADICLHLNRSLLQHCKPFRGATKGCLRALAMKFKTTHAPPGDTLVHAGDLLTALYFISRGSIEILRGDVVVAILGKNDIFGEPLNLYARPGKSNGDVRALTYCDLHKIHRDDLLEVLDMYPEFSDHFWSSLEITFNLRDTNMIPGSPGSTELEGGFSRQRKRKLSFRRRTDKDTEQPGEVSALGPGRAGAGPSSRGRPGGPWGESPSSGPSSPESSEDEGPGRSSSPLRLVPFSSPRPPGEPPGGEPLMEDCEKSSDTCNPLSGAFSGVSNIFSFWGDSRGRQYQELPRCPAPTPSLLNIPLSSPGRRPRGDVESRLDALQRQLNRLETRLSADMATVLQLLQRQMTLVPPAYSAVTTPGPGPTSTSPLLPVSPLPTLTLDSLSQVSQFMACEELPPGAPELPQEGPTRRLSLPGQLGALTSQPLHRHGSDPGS

Point of comparison: `CCOc1ccc(C(=O)Nc2ccc(S(=O)(=O)N3CCN(C)CC3)cc2)cc1`, “hERG current change (%, negative = inhibition) at 1uM” value 11.2%. Against it:
- COc1ccc(-c2nn(-c3ccccc3)cc2C(=O)NC2CCCCC2C)cc1 (centres unmarked) — lower, 7.18%
- O=c1cc(C(F)(F)F)[nH]c2ccc(C(F)(F)F)cc12 — higher, 13%
- CCOC(=O)Cc1csc(NC(=O)c2cnc3sc(C)cn3c2=O)n1 — lower, 6.11%
- CS(=O)(=O)N(CC(O)CON=C1c2ccccc2-c2ccccc21)c1ccc(F)cc1 (centres unmarked) — higher, 17.5%
- Cc1ccc(SCC(=O)OCC(=O)NCCCc2ccccc2)cc1 — higher, 14.5%
- COc1cc(C(C)=O)ccc1OCC(O)CN1CCN(c2ccc(F)cc2)CC1 (centres unmarked) — lower, -10.8%
- OCCCNC(=S)Nc1ccc(Br)cc1Cl — higher, 15.5%
- CS(=O)(=O)c1nc(-c2ccc(Br)cc2)cc(-c2ccccc2)c1C#N — lower, 7.03%
- C=CCOc1ccccc1CNCCc1ccc(S(N)(=O)=O)cc1.Cl — lower, -6.97%
- CN(C)S(=O)(=O)N(CC(=O)NCCSCc1ccc(Cl)cc1)c1ccccc1 — lower, 9.35%
- COC(=O)C1C2c3ccccc3OC1(C)N=c1s/c(=C/c3cnn(C)c3C)c(=O)n12 (centres unmarked) — lower, -5.94%
- CCN(CC)S(=O)(=O)c1ccc2[nH]cc(C(=O)NC3CC3)c(=O)c2c1 — higher, 18.2%
- CCCN(C(=O)CN1C(=O)NC2(CCCCCC2)C1=O)C1CCS(=O)(=O)C1 (centres unmarked) — higher, 17.1%
- Cc1ccccc1NC(=O)CSc1nc2ccccc2c2nc(CCn3cncc3C)nn12 — lower, -33.1%
- Cc1ccc(S(=O)(=O)CCC(=O)NC2CCCCC2)cc1 — lower, 6.91%
- CNC(=O)/C(C#N)=C/c1ccc(-c2ccccc2[N+](=O)[O-])o1 — higher, 13.3%
- CCCOC(=O)c1ccc(Nc2cc(C)nc3ncnn23)cc1 — lower, -3.17%
- O=C(NCc1cccc(Cl)c1)c1ccc2nc(N3CCOCC3)sc2c1 — lower, 1.59%
- O=C(CN1C(=O)c2ccccc2S1(=O)=O)NCc1ccco1 — higher, 12.4%
- Cn1c(-c2ccccc2)cnc1N — higher, 11.4%
- O=C(CSc1nnc(-c2ccc(Cl)cc2)n1Cc1ccco1)c1cccs1 — lower, -6.36%
- CN(C(=O)c1ccccc1Cl)C1CCCCC1 — lower, 4.55%
- CC[C@H](CO)Nc1nc(Nc2cccc(Cl)c2)c2ncn(C(C)C)c2n1 — lower, 8.43%
- COc1ccccc1/C=C1\SC(=O)N(CCC(=O)NCCCn2ccnc2)C1=O — lower, 3.78%
- COc1ccccc1N(CC(O)CN1CCOCC1)S(=O)(=O)c1ccccc1 (centres unmarked) — lower, 9.84%
- COC1CCCN(C(=O)c2cccc(OC3CCN(S(C)(=O)=O)CC3)c2)C1 (centres unmarked) — higher, 12.6%
- CCc1c(C(=O)Nc2ccc(OC)cc2)[nH]c(C)c1C(C)=O — lower, 4.29%
- COc1ccc(NC(=O)CN2C(=O)S/C(=C/c3cccn3-c3ccc(C(=O)O)cc3)C2=O)cc1 — higher, 11.8%
- CN1CCc2c(sc(/N=C/c3cc(C(C)(C)C)ccc3O)c2C#N)C1 — lower, 8.24%
- Cc1cc(C)cc(OCC(=O)N2CCCCCC2)c1 — lower, 6.75%
- COc1ccc(C(=O)NCCn2cc(SCC(=O)NCc3ccco3)c3ccccc32)cc1 — lower, 4.22%
- Cc1ccc(C2C3=C(CC(C)(C)CC3=O)N(CCN3CCOCC3)C3=C2C(=O)CC(C)(C)C3)cc1 — lower, -8.72%
- C#CCNC(=O)C1=C[C@@H](c2ccc(C#C)cc2)[C@H](CCCO)[C@@H](OCC)O1 — lower, -0.679%
- COc1cc(OC)c(C2=NOC(C(=O)NCCc3ccccc3)C2)cc1Cl (centres unmarked) — lower, -9.25%
- CN(CCOc1ccccc1)CC(=O)Nc1ccc(Cl)c(S(=O)(=O)N(C)C)c1.O=C(O)C(=O)O — lower, 6.46%
- CN(Cc1ccccc1)C(=O)c1[nH]cnc1C(=O)NCc1ccccc1 — lower, 6.17%
- Cc1cccc(-n2cc[nH]c2=S)c1C — higher, 12.5%
- COc1cc2c(cc1OC)CN(C(=S)Nc1ccc(OC(F)F)cc1)CC2 — lower, -8.71%
- Cc1ccc(NC(=O)Cc2ncon2)cc1Cl — lower, 2.75%
- N#Cc1cccc(CS(=O)(=O)c2ccc(Cl)cc2)c1 — lower, 8.63%
- CS(=O)(=O)c1cccc(C(=O)Nc2ccc(-c3nc4ccccc4[nH]3)cc2)c1 — higher, 13.2%
- COc1ccc(S(=O)(=O)N(CCc2ccccc2)CC(=O)O)cc1OC — higher, 14.1%
- COc1cc2c(cc1OC)CN(c1ccc(F)cc1[N+](=O)[O-])CC2 — lower, 7.41%
